The RNAGym collection of RNA variant scans (doi:10.7554/elife.90254)
The source gives no read counts; variants with many changes may rest on few reads.

B1: OR4K15 (parent)
chain: GUUAACGGUCAUAGGCCAUGGAAACUAGGAGCACCAUUUCGCUGCCAGUGAAGAAAUGAACAAAGAAAAUCUGGGCCAGGCAGGCAUCAAAAGAAAUAGUCUUGCGCUCAACCAGAAAGUCUGUAAUCAUUUUAAGGGUA

Variants of: B1
Experiment: self-cleavage, relative activity (ratio to wild type); higher = more cleavage; in vitro, sequencing; the parent is a self-cleaving ribozyme
A24C A27U A92U showed a self-cleavage of 2.37.
A55G A62G A86G A117G showed a self-cleavage of 1.14.
In the case of U2C A68G A118G U130C, the self-cleavage is reported as 0.08.
Variant A22G A52G U124C has a self-cleavage of 1.07.
With U9A A52G A114U A117G A118G the self-cleavage was 0.06.
Work on U37C A59U A62G yielded a self-cleavage of 1.6.
In the case of G7A A47G U57A A67G, the self-cleavage is reported as 0.44.
A22C A63G U108C showed a self-cleavage of 0.02.
For A30G U100C A117G, the self-cleavage was 2.88.
For A69G A91G U100A, the self-cleavage was 0.51.
With A60G A66U U130C the self-cleavage was 0.88.
Work on G8U A63G U70C yielded a self-cleavage of 1.9.
With U19C A59G A92G the self-cleavage was 1.42.
Variant A60U G74A A125G has a self-cleavage of 0.03.
Variant U9A A30G G41U has a self-cleavage of 0.54.
Variant A23G U37C A89G U102C G136A has a self-cleavage of 1.68.
With C46U U72C A78G A82U U122A the self-cleavage was 0.24.
Variant A51G A94G A116G A126G has a self-cleavage of 0.41.
C25A U38C A56G U87A U127C showed a self-cleavage of 0.85.
In the case of A33U C76A G83A, the self-cleavage is reported as 0.11.
U43C U87C A126C showed a self-cleavage of 1.01.
A4G A18U A51U A67G gave a self-cleavage of 0.92.
With A59U A64G A68G U131C the self-cleavage was 1.36.
For A11G A66G U139C, the self-cleavage was 1.78.
For U57A A60G U120G, the self-cleavage was 0.52.
Work on A52G U132A U139A yielded a self-cleavage of 1.6.
With G8A A22U A33G U49A A67G A86U A95G the self-cleavage was 1.72.
Variant U19C C61U A118G has a self-cleavage of 0.82.
With U9C A90C U108C the self-cleavage was 0.02.
A24G U26A A67G A90G U108C U122A showed a self-cleavage of 0.01.
In the case of A18C A62G A86G, the self-cleavage is reported as 1.18.
With U3C A5G U43C U57C A62G A68G the self-cleavage was 0.87.
Work on C32A A64G A94G U102C yielded a self-cleavage of 2.12.
For A62U A92G A117G, the self-cleavage was 1.06.
With U43C A59G U70C U87C A134U the self-cleavage was 0.68.
For A5G G28A C40A U131C, the self-cleavage was 1.47.
Work on U103C A118G U139C yielded a self-cleavage of 0.72.
Work on A5G A60G A118G yielded a self-cleavage of 0.82.
Variant A24G U37A U108C A116G U124C has a self-cleavage of 0.04.
In the case of A82G A90U A94G, the self-cleavage is reported as 0.71.
Variant A24G U43C A91G A116G U130C has a self-cleavage of 0.62.
U9C A54G U103C U131C showed a self-cleavage of 1.43.
For A51G A59C A94G C101G, the self-cleavage was 0.06.
U49C A92G A96U U97A gave a self-cleavage of 1.58.
With A55G C88A U127A the self-cleavage was 2.
U19C U102C U108C showed a self-cleavage of 0.01.
For U26A A54G A95G A126G, the self-cleavage was 1.15.
A22U A56G A60G gave a self-cleavage of 0.56.
With A11G A22G A51G A55G A60G A63G A94G C128U the self-cleavage was 0.78.
U2C A23G U38C A52G A54G gave a self-cleavage of 0.86.
Work on C16A A56G U108C A110U yielded a self-cleavage of 0.02.
Variant A24G A64U G74U A129G U132C has a self-cleavage of 0.13.
Work on A62U A69G U70A yielded a self-cleavage of 1.38.
U2C U43C A94G gave a self-cleavage of 1.35.
Variant U3A A33G A111G has a self-cleavage of 0.01.
A86G A94G A134G gave a self-cleavage of 2.15.
Variant A64G A66G U72C has a self-cleavage of 0.29.
Variant A47U A51G A52G A91G U108C has a self-cleavage of 0.
A68G G93A A118G gave a self-cleavage of 1.2.
In the case of A22G U39A U72A A118U A126G, the self-cleavage is reported as 0.01.
U12A U127C G136A showed a self-cleavage of 0.98.
In the case of U9C U102C U103C, the self-cleavage is reported as 0.08.
Work on A23G A64G C109U yielded a self-cleavage of 0.44.
With A30G A60G U139A the self-cleavage was 1.68.
Variant A51G A69G G104A A114G has a self-cleavage of 0.
Variant A69U A114U A117G U122C U131C has a self-cleavage of 0.
Work on U38C C46U A55G A111G G137A yielded a self-cleavage of 0.
Variant A47G A64G U72C has a self-cleavage of 0.09.
In the case of A51U A59U U108A, the self-cleavage is reported as 0.09.
Work on A36U U72A A90G A117G yielded a self-cleavage of 0.
G20A A47C A111U gave a self-cleavage of 0.06.
A59G A67G U124C A126G showed a self-cleavage of 0.35.
With A22C G44C A114G the self-cleavage was 0.76.
With A24G A59G U122C the self-cleavage was 0.38.
In the case of A47U A52G A129G, the self-cleavage is reported as 0.16.
For U19G A51G U102C A110G U131C, the self-cleavage was 0.12.
A33U A63G A89U A126U A134G showed a self-cleavage of 1.57.
For G84A U100C U122G U130C, the self-cleavage was 0.41.
Variant A66C A96G U97C A117U A140G has a self-cleavage of 0.59.
Variant G44U U70C A96G has a self-cleavage of 1.15.
Variant A24G C32U A66G A82U U100C A111U A118G has a self-cleavage of 0.02.
For A24G A27G A59G U108G A125U, the self-cleavage was 0.01.
Variant A60G A91C U120C U124C has a self-cleavage of 0.25.
For G7A A66U A126G, the self-cleavage was 1.1.
For U19C A56G C61A U139C A140G, the self-cleavage was 1.97.
In the case of A63G A82G U103A, the self-cleavage is reported as 0.45.
For G14A A24G U43C A55G A56G A62C U87C A95G, the self-cleavage was 0.69.
For G8A U19C A33U G79A A114U, the self-cleavage was 0.03.
For U43G U70C A90G A111G, the self-cleavage was 0.08.
U2C U39G A60G showed a self-cleavage of 1.1.
U12G A66G A92G U103C gave a self-cleavage of 0.7.
A59U A96G A111G showed a self-cleavage of 0.02.
Work on U3C A24G U38A yielded a self-cleavage of 1.12.
For A5G A60G A69G, the self-cleavage was 0.92.
In the case of U19C U38C A62U A66G, the self-cleavage is reported as 1.22.
Variant U12C A60G A82U U120G has a self-cleavage of 0.15.
Work on A5U A13G A135U yielded a self-cleavage of 0.
Work on A117G A126G U139C yielded a self-cleavage of 1.16.
Work on U87A A116G A129U yielded a self-cleavage of 0.19.
A54G A118G U130C gave a self-cleavage of 0.82.
With A22G U70A U108C A114U U131C the self-cleavage was 0.
G7A A36G G44U showed a self-cleavage of 1.04.
For A66G A89U U100C, the self-cleavage was 2.17.
U43C A89G A92G A98G U127C showed a self-cleavage of 0.05.
Work on U3G A18G U19C U43G A60G A91G A117G yielded a self-cleavage of 1.26.
U12C A94U U124C showed a self-cleavage of 0.29.
In the case of A59G A69G G75A A140C, the self-cleavage is reported as 0.13.
Work on A22G A33U U39C U132C yielded a self-cleavage of 1.02.
Work on A5C U43A A96G U108A yielded a self-cleavage of 0.02.
With A23G A92U U120C the self-cleavage was 0.96.
Variant A18C U37C A51G U139C has a self-cleavage of 1.03.
Variant A13U U57A A126G U127C U132C has a self-cleavage of 0.7.
U3C A30G A47G A86U U87C U132A showed a self-cleavage of 0.92.
Work on A22G U39C A95G U133A yielded a self-cleavage of 1.81.
For A33G A36C A89G, the self-cleavage was 0.3.
Work on U2C A24G A30G G44A U49G A64G yielded a self-cleavage of 1.04.
A5G U38A G104A gave a self-cleavage of 0.13.
With A51G U57G A82G A92G U108C A134G the self-cleavage was 0.
A51G G106A A129C gave a self-cleavage of 0.03.
Variant A18G U38C A78G has a self-cleavage of 0.25.
In the case of A11G U43C U132C, the self-cleavage is reported as 1.1.
U9C A82G A91G gave a self-cleavage of 0.15.
In the case of A52G A92G A125G A129C, the self-cleavage is reported as 0.23.
In the case of U12A A22G U70C A94G, the self-cleavage is reported as 0.3.
A22U A23G A24G U57C A67U U103C A117C showed a self-cleavage of 0.03.
Work on A22G A47U A111G U122C yielded a self-cleavage of 0.01.
In the case of U37C A56G A60G A64G U122C, the self-cleavage is reported as 0.65.
Work on U9C A110G A118U yielded a self-cleavage of 0.14.
For A22G A54U U57C U70C, the self-cleavage was 0.63.
For A23G A47G A52G A68G U72C, the self-cleavage was 0.28.
For A67G G75U U100A, the self-cleavage was 0.04.
Work on A68G A94G U108C yielded a self-cleavage of 0.01.
A33G U37A U108C U122A gave a self-cleavage of 0.
A23G A51G A68G showed a self-cleavage of 1.83.
For U2A U26C U57A U72C U87C A91G A94G, the self-cleavage was 0.24.
In the case of U9C A55G A62G A66G G106U, the self-cleavage is reported as 0.02.
Work on U19A A86G A89G U103C G138A yielded a self-cleavage of 0.17.
U2A A47U A116U gave a self-cleavage of 0.23.
In the case of G7A A24G A36G U43C A51U U72C G123A A140U, the self-cleavage is reported as 0.08.
Work on A13G U49C A56G A68G yielded a self-cleavage of 0.89.
Variant A56G A69G A110G U132C has a self-cleavage of 0.26.
G29U G53A A67U showed a self-cleavage of 1.89.
Work on A62C A86G A98U yielded a self-cleavage of 0.76.
Work on U39C U97C A140C yielded a self-cleavage of 1.02.
Variant A24G A126G A134G has a self-cleavage of 1.5.
For U9A U19C A64G U72A A86U, the self-cleavage was 0.32.
For A5G A96G U97C, the self-cleavage was 1.06.
U3G U26C U102C gave a self-cleavage of 1.52.
Variant G1A U9A U38C A66G A111G has a self-cleavage of 0.09.
U2C A30U U127C showed a self-cleavage of 0.65.
U72C A126G U127C showed a self-cleavage of 0.03.
A67G A96G U122C gave a self-cleavage of 1.17.
For A55G U57C A116C, the self-cleavage was 0.03.
In the case of A24G U38A A64G A90G U108C A111C U127A, the self-cleavage is reported as 0.
Work on A69G A82U A111U yielded a self-cleavage of 0.01.
With G41A U72A U120C the self-cleavage was 0.05.
A23G A90G A94G U131C gave a self-cleavage of 0.54.
U38C A91G A111G showed a self-cleavage of 0.
With G8C G14C U38A A111G A118G U132C the self-cleavage was 0.02.
With U19C A47G A52G the self-cleavage was 0.86.
U26A A47G A55G A60G gave a self-cleavage of 0.78.
Variant A11U A23G U127C has a self-cleavage of 0.61.
Work on U9C A54C U72C A96G A114G yielded a self-cleavage of 2.53.
A69G A90G A92G showed a self-cleavage of 1.13.
With A22G U39C A51G A60G A67G the self-cleavage was 0.78.
In the case of A36G A63G U122C A126G U139C, the self-cleavage is reported as 0.33.
A22G A24C A89U gave a self-cleavage of 1.51.
